The results in this text go back to the supplement of paper PMC12217912.

The other results are listed elsewhere or left out. The full chains were built here from the parent and the listed change. Values near 0.05 are background.

B1: TEV protease; numbered along this chain (parent)
chain: MGESLFKGPRDYNPISSSICHLTNESDGHTTSLYGIGFGPFIITNKHLFRRNNGTLVVQSLHGVFKVKDTTTLQQHLVDGRDMIIIRMPKDFPPFPQKLKFREPQREERICLVTTNFQTKSMSSMVSDTSCTFPSGDGIFWKHWIQTKDGQCGSPLVSTRDGFIVGIHSASNFTNTNNYFTSVPKNFMELLTNQEAQQWVSGWRLNADSVLWGGHKVFMVKPEEPFQPVKEATQL
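Note: Bxb1 expression induced with 0.2% (w/v) L-rhamnose at OD600 near 0.5, cultures sampled hourly, flipped fraction per protease–substrate barcode pair counted by paired-end Illumina sequencing.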

This assay covers variants of B1. In words: raw area under fraction-flipped curve 0-4 h after induction (AUC4h, not background-subtracted), DNA-recorder readout of cleavage of the substrate (dimensionless); higher = more cleavage of the substrate by the protease variant. Conditions: temperature: 34 °C; time window: 0-4 h after rhamnose induction. The method, then: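 In vivo DNA recorder in E. coli TOP10(DE3) ΔrhaA at 34 °C. Each TEVp single-site mutant (parent TEVp 0) is paired with a single-site variant of the 7-mer TEVs (canonical ENLYFQ|S). The substrate sits between flexible linkers in a Bxb1-sfGFP-TEVs-SsrA fusion, so cleavage stabilises Bxb1 and speeds flipping of a recombination array, read by NGS. The value is the raw area under the fraction-flipped curve over 0-4 h after rhamnose induction (AUC4h), with ≥20 reads per time point. It is not background-subtracted; inactive controls average about 0.047.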
Consider MGESLFKGPRDYNPISSSICHLTNESDGHTTSLYGIGFGPFIITNKHLFRRNNGTLVVQSLHGVFKVKDTTTLQQHLVDGRDMIIIRMPKDFPPFPQKLKFREPQREERICLVTTNFQTKSMSSMVSDTSCTFPSGDGIFWKHWIQTKDGQCISPLVSTRDGFIVGIHSASNFTNTNNYFTSVPKNFMELLTNQEAQQWVSGWRLNADSVLWGGHKVFMVKPEEPFQPVKEATQL [G153I], for which the “area with substrate GNLYFQS” value was 0.0564, the “area with substrate HNLYFQS” value amounted to 0.0426, the “area with substrate LNLYFQS” value worked out at 0.057 and the “area with substrate SNLYFQS” value was 0.031.

Turning to MGESLFKGPRDYNPISSSICHLTNESDGHTTSLYGIGFGPFIITNKHLFRRNNGTLVVQSLHGVFKVKDTTTLQQHLVDGRDMIIIRMPKDFPPFPQKLKFREPQREERICLVTTNFQTKSMSSMVSDTSCTFPSGDGIFWKHWIQTKDGQCLSPLVSTRDGFIVGIHSASNFTNTNNYFTSVPKNFMELLTNQEAQQWVSGWRLNADSVLWGGHKVFMVKPEEPFQPVKEATQL [G153L], the “area with substrate GNLYFQS” value came out at 0.0398, the “area with substrate LNLYFQS” value stood at 0.043, the “area with substrate MNLYFQS” value came out at 0.0455 and the “area with substrate NNLYFQS” value was found to be 0.0482. For the same variant, the “area with substrate SNLYFQS” value stood at 0.0578 and the “area with substrate YNLYFQS” value was 0.037.

Turning to MGESLFKGPRDYNPISSSICHLTNESDGHTTSLYGIGFGPFIITNKHLFRRNNGTLEVQSLHGVFKVKDTTTLQQHLVDGRDMIIIRMPKDFPPFPQKLKFREPQREERICLVTTNFQTKSMSSMVSDTSCTFPSGDGIFWKHWIQTKDGQCGSPLVSTRDGFIVGIHSASNFTNTNNYFTSVPKNFMELLTNQEAQQWVSGWRLNADSVLWGGHKVFMVKPEEPFQPVKEATQL [V57E], the “area with substrate GNLYFQS” value was 0.0654, the “area with substrate HNLYFQS” value is 0.0694, the “area with substrate INLYFQS” value came to 0.0592 and the “area with substrate KNLYFQS” value worked out at 0.064. The “area with substrate MNLYFQS” value worked out at 0.0728, the “area with substrate PNLYFQS” value was found to be 0.0517, the “area with substrate SNLYFQS” value turned out to be 0.0764 and the “area with substrate YNLYFQS” value stood at 0.0413.

MGESLFKGPRDYNPISSSICHLTNESDGHTTSLYGIGFGPFIITNKHLFRRNNGTLVVQSLHGVFKVKDTTTLQQHLVDGRDMIIIRMPKDFPPFPQKLKFREPQREERICLVTTNFQTKSMSSMVSDTSCTFPSGSGIFWKHWIQTKDGQCGSPLVSTRDGFIVGIHSASNFTNTNNYFTSVPKNFMELLTNQEAQQWVSGWRLNADSVLWGGHKVFMVKPEEPFQPVKEATQL [D137S]: the “area with substrate GNLYFQS” value came out at 0.0804, the “area with substrate INLYFQS” value was 0.0706, the “area with substrate PNLYFQS” value stood at 0.0518 and the “area with substrate SNLYFQS” value came out at 0.0603. The “area with substrate VNLYFQS” value is 0.0726 and the “area with substrate WNLYFQS” value stood at 0.0783.

Take MGESLFKGPRDYNPISSSICHLTNESDGHTTSLYGIGFGPFIITNKHLFRRNNGTLVVQSLHGVFKVKDTTTLQQHLVDGRDMIIIRMPKDFPPFPQKLKFREPQREERICLVTTWFQTKSMSSMVSDTSCTFPSGDGIFWKHWIQTKDGQCGSPLVSTRDGFIVGIHSASNFTNTNNYFTSVPKNFMELLTNQEAQQWVSGWRLNADSVLWGGHKVFMVKPEEPFQPVKEATQL [N116W]: the “area with substrate GNLYFQS” value came out at 0.0604, the “area with substrate HNLYFQS” value is 0.059, the “area with substrate LNLYFQS” value came out at 0.0588 and the “area with substrate NNLYFQS” value is 0.0622. Moreover, the “area with substrate PNLYFQS” value turned out to be 0.088, the “area with substrate VNLYFQS” value stood at 0.046 and the “area with substrate YNLYFQS” value came to 0.0477.

Consider MGESLFKGPRDYNPISSSICHLTNESDGHTTSLYGIGFGPFIITNKHLFRRNNGTLVVQSLHGVFKVKDTTTLQQHLVDGRDMIIIRMPKDFPPFPQKLKFREPQREERICLVTTNPQTKSMSSMVSDTSCTFPSGDGIFWKHWIQTKDGQCGSPLVSTRDGFIVGIHSASNFTNTNNYFTSVPKNFMELLTNQEAQQWVSGWRLNADSVLWGGHKVFMVKPEEPFQPVKEATQL [F117P], for which the “area with substrate GNLYFQS” value came to 0.065, the “area with substrate HNLYFQS” value was determined as 0.0733, the “area with substrate KNLYFQS” value was determined as 0.0641 and the “area with substrate LNLYFQS” value worked out at 0.0472. Moreover, the “area with substrate TNLYFQS” value is 0.0694 and the “area with substrate YNLYFQS” value amounted to 0.0468.

On to MGESLFKGPRDYNPISSSICHLTNESDGHTTSLYGIGFGPFIITNKHLFRRNNGTLVVQSLHGVFKVKDTTTLQQHLVDGRDMIIIRMPKDFPPFPQKLKFREPQREERICLVTTNFQTKSMSSMVSDTSCTFPSGDGTFWKHWIQTKDGQCGSPLVSTRDGFIVGIHSASNFTNTNNYFTSVPKNFMELLTNQEAQQWVSGWRLNADSVLWGGHKVFMVKPEEPFQPVKEATQL [I139T], for which the “area with substrate GNLYFQS” value was 0.112, the “area with substrate INLYFQS” value stood at 0.0588, the “area with substrate LNLYFQS” value turned out to be 0.0729 and the “area with substrate MNLYFQS” value was 0.0913. Further, the “area with substrate NNLYFQS” value came out at 0.0847 and the “area with substrate TNLYFQS” value was determined as 0.0617.

MGESLFKGPRDYNPISSSICHLTNESDGHTTSLYGIGFGPFIITNKHLFRRNNGTLVVQSLHGVFKVKDTTTLQQHLVDGRDMVIIRMPKDFPPFPQKLKFREPQREERICLVTTNFQTKSMSSMVSDTSCTFPSGDGIFWKHWIQTKDGQCGSPLVSTRDGFIVGIHSASNFTNTNNYFTSVPKNFMELLTNQEAQQWVSGWRLNADSVLWGGHKVFMVKPEEPFQPVKEATQL [I84V]: the “area with substrate GNLYFQS” value worked out at 0.0429, the “area with substrate HNLYFQS” value came to 0.0662, the “area with substrate INLYFQS” value amounted to 0.0741 and the “area with substrate NNLYFQS” value was found to be 0.0646. The “area with substrate PNLYFQS” value turned out to be 0.0731, the “area with substrate SNLYFQS” value came out at 0.0546, the “area with substrate VNLYFQS” value amounted to 0.0686 and the “area with substrate WNLYFQS” value stood at 0.0475.

For MGESLFKGPRDYNPISSSICHLTNESDGHTTSLYGIGFGPFIITNKHLFRRNNGTLVVQSLHGVFKVKDTTTLQQHLVDGRDMIIIRMPKDFPPFPQKLKFREPQREERICLVTTNFQTKSMSSMVSDTSCTFRSGDGIFWKHWIQTKDGQCGSPLVSTRDGFIVGIHSASNFTNTNNYFTSVPKNFMELLTNQEAQQWVSGWRLNADSVLWGGHKVFMVKPEEPFQPVKEATQL [P134R], the “area with substrate GNLYFQS” value amounted to 0.0774, the “area with substrate HNLYFQS” value stood at 0.0668, the “area with substrate INLYFQS” value came to 0.058 and the “area with substrate KNLYFQS” value stood at 0.0579. The “area with substrate LNLYFQS” value worked out at 0.0604, the “area with substrate MNLYFQS” value is 0.0689, the “area with substrate PNLYFQS” value was 0.0609 and the “area with substrate RNLYFQS” value is 0.0684. The “area with substrate SNLYFQS” value was determined as 0.0146, the “area with substrate TNLYFQS” value came out at 0.0621, the “area with substrate VNLYFQS” value was found to be 0.0535 and the “area with substrate WNLYFQS” value was determined as 0.061. For the same variant, the “area with substrate YNLYFQS” value came to 0.075.

MGESLFKGPRDYNPISSSICHLTNESDGHTTSLYGIGFGPFIITNKHLFRRNNGTLVVQSLHGVFKVKDTTTLQQHLVDGRDMIIIRMPKDFPPFPQKLKFREPQREERICLVTTNFQTKSMSSMVSDTSCTFPSGDGIFWKHWIQTKDGQCGSPLVLTRDGFIVGIHSASNFTNTNNYFTSVPKNFMELLTNQEAQQWVSGWRLNADSVLWGGHKVFMVKPEEPFQPVKEATQL [S158L]: the “area with substrate GNLYFQS” value was 0.0533 and the “area with substrate HNLYFQS” value came to 0.042.

Consider MGESLFKGPRDYNPISSSICHLTNESDGHTTSLYGIGFGPFIITNKHLFRRNNGTLVVQSLHGVFKVKDTTTLQQHLVDGRDMIIIRMPKDFPPFPQKLKFREPQREERICLVTTNFQTKSMSSMVSDTSCTFPSGDGIFWKHWIQTKDGQCGSPLVVTRDGFIVGIHSASNFTNTNNYFTSVPKNFMELLTNQEAQQWVSGWRLNADSVLWGGHKVFMVKPEEPFQPVKEATQL [S158V], for which the “area with substrate GNLYFQS” value came to 0.0594, the “area with substrate HNLYFQS” value was determined as 0.0426, the “area with substrate KNLYFQS” value was 0.0468 and the “area with substrate LNLYFQS” value worked out at 0.0492. Besides, the “area with substrate NNLYFQS” value was found to be 0.0497, the “area with substrate PNLYFQS” value came to 0.043, the “area with substrate RNLYFQS” value amounted to 0.0602 and the “area with substrate TNLYFQS” value came to 0.0504. The “area with substrate WNLYFQS” value worked out at 0.0436.
